Laboratory results published in publication PMC4642984.
These are yes or no findings as the source states them, for the method shown. In cells and extracts the contact can be indirect. Some results given as binding are weak or reduced against the parent protein; the word gives no strength. For some assays here: Where a sequence is shown, tags or fusion partners need not be part of it. One block for each binder: values may come before it.

Sequences of proteins named here, by UniProt entry; tags and fusion partners are left off. A change or cut given only in a name is not applied to a line headed by its entry. A line that says so, or that is headed by a name, gives the form on record, which may keep a tag or linker.
BMAL1 (mouse (endogenous in MEFs)) (Q9WTL8, form named): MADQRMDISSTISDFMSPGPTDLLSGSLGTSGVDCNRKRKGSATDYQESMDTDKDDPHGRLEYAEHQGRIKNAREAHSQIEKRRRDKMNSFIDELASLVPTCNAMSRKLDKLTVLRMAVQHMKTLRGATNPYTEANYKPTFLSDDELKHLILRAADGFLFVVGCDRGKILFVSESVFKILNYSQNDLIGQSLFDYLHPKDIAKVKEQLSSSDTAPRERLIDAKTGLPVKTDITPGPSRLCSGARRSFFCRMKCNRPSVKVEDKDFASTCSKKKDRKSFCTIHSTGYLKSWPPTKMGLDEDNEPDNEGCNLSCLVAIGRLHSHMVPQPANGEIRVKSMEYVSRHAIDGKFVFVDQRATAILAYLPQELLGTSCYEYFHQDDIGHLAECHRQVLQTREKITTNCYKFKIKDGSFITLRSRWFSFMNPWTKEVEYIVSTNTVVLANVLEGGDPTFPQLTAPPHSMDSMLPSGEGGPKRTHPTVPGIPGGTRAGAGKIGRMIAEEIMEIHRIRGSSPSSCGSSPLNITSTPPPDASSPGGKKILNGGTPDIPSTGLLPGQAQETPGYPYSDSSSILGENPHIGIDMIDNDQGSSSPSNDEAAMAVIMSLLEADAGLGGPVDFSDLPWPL
UniProt P67870: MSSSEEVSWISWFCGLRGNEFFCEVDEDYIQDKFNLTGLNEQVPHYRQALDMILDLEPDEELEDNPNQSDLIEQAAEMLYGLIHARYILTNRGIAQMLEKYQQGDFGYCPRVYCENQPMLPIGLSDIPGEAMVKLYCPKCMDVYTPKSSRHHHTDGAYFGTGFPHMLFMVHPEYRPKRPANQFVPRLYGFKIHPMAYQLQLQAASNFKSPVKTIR
UniProt P67871: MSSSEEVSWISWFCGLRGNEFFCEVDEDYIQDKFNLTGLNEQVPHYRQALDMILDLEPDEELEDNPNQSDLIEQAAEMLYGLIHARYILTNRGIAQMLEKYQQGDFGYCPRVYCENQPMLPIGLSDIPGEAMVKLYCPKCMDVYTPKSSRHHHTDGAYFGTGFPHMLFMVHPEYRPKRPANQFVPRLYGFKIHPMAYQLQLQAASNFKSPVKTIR

What was measured:
[1] = target: Myc-BMAL1-WT (UniProt Q9WTL8); experiment: co-IP; Myc-BMAL1 IP from supernatants of Dex-synchronized Bmal1-/- MEFs stably expressing Myc-BMAL1-WT, -S90A or -K537R, harvested 22 h after treatment; immunoblot for CK2β, CRY1/2 and CLOCK
[2] = target: GST-CK2β (UniProt P67870); experiment: pull-down; purified bacterially expressed GST-CK2 subunits mixed 1:1 with in vitro translated 35S-methionine labeled clock proteins, precipitated with glutathione Sepharose beads, SDS-PAGE and autoradiography; only the target purified
[3] = target: GST-CK2α (UniProt P68400); experiment: as above
[4] = target: GST-CK2α′ (UniProt P19784); experiment: as above
[5] = target: CK2β (mouse (endogenous in MEFs)) (UniProt P67871); experiment: co-IP; endogenous proteins from lysates of mouse embryonic fibroblasts (WT; also BMAL1-deficient, SIRT1KO, and CRYdKO stably expressing Myc-CRY1; unsynchronised or Dex-synchronised, harvested at intervals); IP with anti-BMAL1, anti-CK2α, anti-CK2β or anti-CRY1/2, immunoblot
[6] = target: BMAL1 (mouse (endogenous in MEFs)) (UniProt Q9WTL8); experiment: as above

B1: CLOCK (protein, UniProt O08785 1-855)
chain: MVFTVSCSKMSSIVDRDDSSIFDGLVEEDDKDKAKRVSRNKSEKKRRDQFNVLIKELGSMLPGNARKMDKSTVLQKSIDFLRKHKETTAQSDASEIRQDWKPTFLSNEEFTQLMLEALDGFFLAIMTDGSIIYVSESVTSLLEHLPSDLVDQSIFNFIPEGEHSEVYKILSTHLLESDSLTPEYLKSKNQLEFCCHMLRGTIDPKEPSTYEYVRFIGNFKSLTSVSTSTHNGFEGTIQRTHRPSYEDRVCFVATVRLATPQFIKEMCTVEEPNEEFTSRHSLEWKFLFLDHRAPPIIGYLPFEVLGTSGYDYYHVDDLENLAKCHEHLMQYGKGKSCYYRFLTKGQQWIWLQTHYYITYHQWNSRPEFIVCTHTVVSYAEVRAERRRELGIEESLPETAADKSQDSGSDNRINTVSLKEALERFDHSPTPSASSRSSRKSSHTAVSDPSSTPTKIPTDTSTPPRQHLPAHEKMTQRRSSFSSQSINSQSVGPSLTQPAMSQAANLPIPQGMSQFQFSAQLGAMQHLKDQLEQRTRMIEANIHRQQEELRKIQEQLQMVHGQGLQMFLQQSNPGLNFGSVQLSSGNSNIQQLTPVNMQGQVVPANQVQSGHISTGQHMIQQQTLQSTSTQQSQQSVMSGHSQQTSLPSQTPSTLTAPLYNTMVISQPAAGSMVQIPSSMPQNSTQSATVTTFTQDRQIRFSQGQQLVTKLVTAPVACGAVMVPSTMLMGQVVTAYPTFATQQQQAQTLSVTQQQQQQQQQPPQQQQQQQQSSQEQQLPSVQQPAQAQLGQPPQQFLQTSRLLHGNPSTQLILSAAFPLQQSTFPPSHHQQHQPQQQQQLPRHRTDSLTDPSKVQPQ
- binding [1]: binds

B2: V5-CRY1 (protein, UniProt P97784 1-606)
chain: MGVNAVHWFRKGLRLHDNPALKECIQGADTIRCVYILDPWFAGSSNVGINRWRFLLQCLEDLDANLRKLNSRLFVIRGQPADVFPRLFKEWNITKLSIEYDSEPFGKERDAAIKKLATEAGVEVIVRISHTLYDLDKIIELNGGQPPLTYKRFQTLVSKMEPLEMPADTITSDVIGKCMTPLSDDHDEKYGVPSLEELGFDTDGLSSAVWPGGETEALTRLERHLERKAWVANFERPRMNANSLLASPTGLSPYLRFGCLSCRLFYFKLTDLYKKVKKNSSPPLSLYGQLLWREFFYTAATNNPRFDKMEGNPICVQIPWDKNPEALAKWAEGRTGFPWIDAIMTQLRQEGWIHHLARHAVACFLTRGDLWISWEEGMKVFEELLLDADWSINAGSWMWLSCSSFFQQFFHCYCPVGFGRRTDPNGDYIRRYLPVLRGFPAKYIYDPWNAPEGIQKVAKCLIGVNYPKPMVNHAEASRLNIERMKQIYQQLSRYRGLGLLASVPSNSNGNGGLMGYAPGENVPSCSSSGNGGLMGYAPGENVPSCSGGNCSQGSGILHYAHGDSQQTHSLKQGRSSAGTGLSSGKRPSQEEDAQSVGPKVQRQSSN
modifications: 35S-methionine label
- binding [2]: binds
- binding [3]: binds
- binding [4]: binds

B5: CK2α (enzyme, UniProt Q60737 1-391)
chain: MSGPVPSRARVYTDVNTHRPREYWDYESHVVEWGNQDDYQLVRKLGRGKYSEVFEAINITNNEKVVVKILKPVKKKKIKREIKILENLRGGPNIITLADIVKDPVSRTPALVFEHVNNTDFKQLYQTLTDYDIRFYMYEILKALDYCHSMGIMHRDVKPHNVMIDHEHRKLRLIDWGLAEFYHPGQEYNVRVASRYFKGPELLVDYQMYDYSLDMWSLGCMLASMIFRKEPFFHGHDNYDQLVRIAKVLGTEDLYDYIDKYNIELDPRFNDILGRHSRKRWERFVHSENQHLVSPEALDFLDKLLRYDHQSRLTAREAMEHPYFYTVVKDQARMSSTSMAGGSTPVSSANMMSGISSVPTPSPLGPLAGSPVIAAANSLGIPVPAAAGAQQ
- binding [6]: binds

B6: V5-CRY2 (protein, UniProt Q9R194 1-592)
chain: MAAAAVVAATVPAQSMGADGASSVHWFRKGLRLHDNPALLAAVRGARCVRCVYILDPWFAASSSVGINRWRFLLQSLEDLDTSLRKLNSRLFVVRGQPADVFPRLFKEWGVTRLTFEYDSEPFGKERDAAIMKMAKEAGVEVVTENSHTLYDLDRIIELNGQKPPLTYKRFQALISRMELPKKPAVAVSSQQMESCRAEIQENHDDTYGVPSLEELGFPTEGLGPAVWQGGETEALARLDKHLERKAWVANYERPRMNANSLLASPTGLSPYLRFGCLSCRLFYYRLWDLYKKVKRNSTPPLSLFGQLLWREFFYTAATNNPRFDRMEGNPICIQIPWDRNPEALAKWAEGKTGFPWIDAIMTQLRQEGWIHHLARHAVACFLTRGDLWVSWESGVRVFDELLLDADFSVNAGSWMWLSCSAFFQQFFHCYCPVGFGRRTDPSGDYIRRYLPKLKGFPSRYIYEPWNAPESVQKAAKCIIGVDYPRPIVNHAETSRLNIERMKQIYQQLSRYRGLCLLASVPSCVEDLSHPVAEPGSSQAGSISNTGPRALSSGPASPKRKLEAAEEPPGEELTKRARVTEMPTQEPASKDS
modifications: 35S-methionine label
- binding [2]: binds
- binding [3]: binds
- binding [4]: binds

The remaining lines, values ahead:

- binding [5]: binds
B3: Myc-CRY1 (protein, UniProt P97784 1-606)
chain: MGVNAVHWFRKGLRLHDNPALKECIQGADTIRCVYILDPWFAGSSNVGINRWRFLLQCLEDLDANLRKLNSRLFVIRGQPADVFPRLFKEWNITKLSIEYDSEPFGKERDAAIKKLATEAGVEVIVRISHTLYDLDKIIELNGGQPPLTYKRFQTLVSKMEPLEMPADTITSDVIGKCMTPLSDDHDEKYGVPSLEELGFDTDGLSSAVWPGGETEALTRLERHLERKAWVANFERPRMNANSLLASPTGLSPYLRFGCLSCRLFYFKLTDLYKKVKKNSSPPLSLYGQLLWREFFYTAATNNPRFDKMEGNPICVQIPWDKNPEALAKWAEGRTGFPWIDAIMTQLRQEGWIHHLARHAVACFLTRGDLWISWEEGMKVFEELLLDADWSINAGSWMWLSCSSFFQQFFHCYCPVGFGRRTDPNGDYIRRYLPVLRGFPAKYIYDPWNAPEGIQKVAKCLIGVNYPKPMVNHAEASRLNIERMKQIYQQLSRYRGLGLLASVPSNSNGNGGLMGYAPGENVPSCSSSGNGGLMGYAPGENVPSCSGGNCSQGSGILHYAHGDSQQTHSLKQGRSSAGTGLSSGKRPSQEEDAQSVGPKVQRQSSN

- binding [5]: binds
B4: CRY1 (protein, UniProt P97784 1-606)
chain: MGVNAVHWFRKGLRLHDNPALKECIQGADTIRCVYILDPWFAGSSNVGINRWRFLLQCLEDLDANLRKLNSRLFVIRGQPADVFPRLFKEWNITKLSIEYDSEPFGKERDAAIKKLATEAGVEVIVRISHTLYDLDKIIELNGGQPPLTYKRFQTLVSKMEPLEMPADTITSDVIGKCMTPLSDDHDEKYGVPSLEELGFDTDGLSSAVWPGGETEALTRLERHLERKAWVANFERPRMNANSLLASPTGLSPYLRFGCLSCRLFYFKLTDLYKKVKKNSSPPLSLYGQLLWREFFYTAATNNPRFDKMEGNPICVQIPWDKNPEALAKWAEGRTGFPWIDAIMTQLRQEGWIHHLARHAVACFLTRGDLWISWEEGMKVFEELLLDADWSINAGSWMWLSCSSFFQQFFHCYCPVGFGRRTDPNGDYIRRYLPVLRGFPAKYIYDPWNAPEGIQKVAKCLIGVNYPKPMVNHAEASRLNIERMKQIYQQLSRYRGLGLLASVPSNSNGNGGLMGYAPGENVPSCSSSGNGGLMGYAPGENVPSCSGGNCSQGSGILHYAHGDSQQTHSLKQGRSSAGTGLSSGKRPSQEEDAQSVGPKVQRQSSN

- binding [5]: binds
B7: CRY2 (protein, UniProt Q9R194 1-592)
chain: MAAAAVVAATVPAQSMGADGASSVHWFRKGLRLHDNPALLAAVRGARCVRCVYILDPWFAASSSVGINRWRFLLQSLEDLDTSLRKLNSRLFVVRGQPADVFPRLFKEWGVTRLTFEYDSEPFGKERDAAIMKMAKEAGVEVVTENSHTLYDLDRIIELNGQKPPLTYKRFQALISRMELPKKPAVAVSSQQMESCRAEIQENHDDTYGVPSLEELGFPTEGLGPAVWQGGETEALARLDKHLERKAWVANYERPRMNANSLLASPTGLSPYLRFGCLSCRLFYYRLWDLYKKVKRNSTPPLSLFGQLLWREFFYTAATNNPRFDRMEGNPICIQIPWDRNPEALAKWAEGKTGFPWIDAIMTQLRQEGWIHHLARHAVACFLTRGDLWVSWESGVRVFDELLLDADFSVNAGSWMWLSCSAFFQQFFHCYCPVGFGRRTDPSGDYIRRYLPKLKGFPSRYIYEPWNAPESVQKAAKCIIGVDYPRPIVNHAETSRLNIERMKQIYQQLSRYRGLCLLASVPSCVEDLSHPVAEPGSSQAGSISNTGPRALSSGPASPKRKLEAAEEPPGEELTKRARVTEMPTQEPASKDS
